# Measured values: US20260042854A1, “ANTI-GLP-1R ANTIBODIES AND USES THEREOF” (SCIWIND BIOSCIENCES USA CO., LTD, priority 2022, published 2026)
# B1: P16888 (antibody, human IgG4 S228P, kappa)
# heavy: QVQLVQSGAEMKKPGASVKVSCKTSGYRFSTYVISWVRQTPGQGLEWMGWISPYTGDIDYAQKFQGRVTITADESTSTAYMELSRLRSDDTAVYYCAREREGYNFPGMDVWGQGTTVTVSSASTKGPSVFPLAPCSRSTSESTAALGCLVKDYFPEPVTVSWNSGALTSGVHTFPAVLQSSGLYSLSSVVTVPSSSLGTKTYTCNVDHKPSNTKVDKRV[human IgG4 Fc with S228P (EU numbers) not listed]
# light: DIQLTQSPSFLSASVGDRVTITCRASQGISSYLAWYQQKPGRAPKLLIYSASTLQRGVPSRFSGSGSGTDFTLTISSLQPEDYATYYCQQAESFPPSFGPGTKVDIKRTVAAPSVFIFPPSDEQLKSGTASVVCLLNNFYPREAKVQWKVDNALQSGNSQESVTEQDSKDSTYSLSSTLTLSKADYEKHKVYACEVTHQGLSSPVTKSFNRGEC
# Columns and labels:
# [1] = molecular target: monkey GLP-1R (JN033215.1) on HEK293 cells (monkey); test: cell-based or functional assay
# [2] = molecular target: hGLP-1R on the cell membrane (HEK293 cells overexpressing hGLP-1R) (human) (UniProt P43220); test: cell-based or functional assay
# Sequence of UniProt P43220 (P43220 24-463): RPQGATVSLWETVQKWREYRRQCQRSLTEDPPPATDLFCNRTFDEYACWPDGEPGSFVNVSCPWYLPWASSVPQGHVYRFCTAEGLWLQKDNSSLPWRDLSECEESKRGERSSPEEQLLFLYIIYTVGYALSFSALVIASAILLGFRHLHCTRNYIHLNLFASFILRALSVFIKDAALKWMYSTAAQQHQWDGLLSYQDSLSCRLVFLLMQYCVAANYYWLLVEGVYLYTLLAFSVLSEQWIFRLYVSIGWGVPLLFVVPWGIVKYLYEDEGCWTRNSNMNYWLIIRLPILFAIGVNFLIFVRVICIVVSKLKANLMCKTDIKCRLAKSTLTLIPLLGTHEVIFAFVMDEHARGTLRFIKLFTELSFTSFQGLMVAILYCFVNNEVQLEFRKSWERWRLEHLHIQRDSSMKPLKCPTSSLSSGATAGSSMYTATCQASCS
binder,measurement,setting,value
B1,"IC50, inhibition of GLP-1 (2.5 ng/mL) activity in monkey GLP-1R-CRE-Luciferase-HEK293 reporter gene assay",[1],15.3 nM
same,"Average IC50, nM; hGLP-1R-CRE-Luciferase-HEK293 reporter gene assay; antibody in PBS pH 5.5 at 40 C, Day 0",[2],6.8 nM
same,"Average IC50, nM; hGLP-1R-CRE-Luciferase-HEK293 reporter gene assay; antibody in PBS pH 5.5 at 40 C, Day 10",[2],5.9 nM
same,"Average IC50, nM; hGLP-1R-CRE-Luciferase-HEK293 reporter gene assay; antibody in PBS pH 5.5 at 40 C, Day 20",[2],6.7 nM
same,"Average IC50, nM; hGLP-1R-CRE-Luciferase-HEK293 reporter gene assay; antibody in PBS pH 5.5 at 40 C, Day 30",[2],7.4 nM
same,"Average IC50, nM; hGLP-1R-CRE-Luciferase-HEK293 reporter gene assay; antibody in PBS pH 7.4 at 40 C, Day 0",[2],19.7 nM
same,"Average IC50, nM; hGLP-1R-CRE-Luciferase-HEK293 reporter gene assay; antibody in PBS pH 7.4 at 40 C, Day 10",[2],20.6 nM
same,"Average IC50, nM; hGLP-1R-CRE-Luciferase-HEK293 reporter gene assay; antibody in PBS pH 7.4 at 40 C, Day 20",[2],18.4 nM
same,"Average IC50, nM; hGLP-1R-CRE-Luciferase-HEK293 reporter gene assay; antibody in PBS pH 7.4 at 40 C, Day 30",[2],18.7 nM
same,"IC50, inhibition of GLP-1 (2.5 ng/ml) activity in hGLP-1R-CRE-Luciferase-HEK293 reporter gene assay",[2],17.4 nM
